From a collection of fitness landscapes (doi:10.1016/j.celrep.2020.107928)
In all, about 81,000 sequences were measured (“one-hybrid fitness for binding NBS DNA”: median about -0.1, highest 2% from about 0.36 on). The list shows a part of the results.

B1: Caulobacter ParB omega fusion; a variant is named by its letters at X, in order, B8GW30 (parent)
chain: MESVVVGEPGMSEGRRGLGRGLSALLGEVDAAPAQAPGEQLGGSREAPIEILQRNPDQPRRTFREEDLEDLSNSIREKGVLQPILVRPSPDTAGEYQIVAGERAWRAAQRAGLKTVPIMVRELDDLAVLEIGIIENVQRADLNVLEEALSYKVLMEKFERTQENIAQTIGKSXSHVANXMRLLXLPDEVQSYLVSGELTAXHARAIAAAADPVALAKQIIEGGLSVRETEALARKAPNLSAGKSKGGRPPRVKDTDTQALESDLSSVLGLDVSIDHRGSTGTLTITYATLEQLDDLCNRLTRGI

Variants of: B1
Test: one-hybrid fitness for binding NBS DNA (the Noc-binding site; scaled: cognate 1, non-cognate 0); higher = stronger binding
Conditions: with NBS DNA site
Method in brief: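 Caulobacter ParB libraries with four specificity codons randomised were screened by bacterial one-hybrid selection in the E. coli USO strain, using a HIS3 reporter whose site lies 19 bp from the promoter. Selection ran for 48 hours at 37°C on M9 lacking histidine, with 0.1 mM IPTG and 5 mM 3-AT. Plasmids were Illumina-sequenced before and after selection, three replicate libraries were pooled, and variants with under 10 reads were dropped. Fitness is the log change in each variant's read ratio to wild type, rescaled against the cognate and non-cognate sites.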

Row | Variant | one-hybrid fitness for binding NBS DNA
1 | LYWW | ≤ 0.2
2 | EDAT | ≤ 0.2
3 | PREM | ≤ 0.2
4 | ARHM | ≤ 0.2
5 | LYHT | ≤ 0.2
6 | KMWT | ≤ 0.2
7 | HSDG | ≤ 0.2
8 | ISMH | ≤ 0.2
9 | VPVC | 0.222
10 | TACW | ≤ 0.2
11 | EDYM | ≤ 0.2
12 | AGFR | ≤ 0.2
13 | TSME | ≤ 0.2
14 | RSAN | ≤ 0.2
15 | CLAV | ≤ 0.2
16 | WDCT | ≤ 0.2
17 | PITW | ≤ 0.2
18 | QDAE | ≤ 0.2
19 | IRDR | ≤ 0.2
20 | GELY | ≤ 0.2
21 | LPRC | ≤ 0.2
22 | QWDS | ≤ 0.2
23 | TAYC | ≤ 0.2
24 | CSIA | ≤ 0.2

Row | Variant | one-hybrid fitness for binding NBS DNA
25 | KKER | ≤ 0.2
26 | CFMT | ≤ 0.2
27 | IDDF | ≤ 0.2
28 | ATMR | ≤ 0.2
29 | NYCG | ≤ 0.2
30 | GIPF | ≤ 0.2
31 | ETNR | ≤ 0.2
32 | TAKY | ≤ 0.2
33 | QYNA | 0.269
34 | SFSM | ≤ 0.2
35 | SFND | ≤ 0.2
36 | VCLL | ≤ 0.2
37 | LQNM | ≤ 0.2
38 | ECRD | ≤ 0.2
39 | HNKD | ≤ 0.2
40 | HYYR | ≤ 0.2
41 | MMCG | ≤ 0.2
42 | ENQR | ≤ 0.2
43 | MHSF | ≤ 0.2
44 | KLGI | ≤ 0.2
45 | RDMG | ≤ 0.2
46 | NYDF | ≤ 0.2
47 | CYLR | ≤ 0.2
48 | KRVP | ≤ 0.2

Row | Variant | one-hybrid fitness for binding NBS DNA
49 | NNAS | ≤ 0.2
50 | TLNM | ≤ 0.2
51 | FMAR | ≤ 0.2
52 | DDAG | ≤ 0.2
53 | HRED | ≤ 0.2
54 | TARP | ≤ 0.2
55 | PQLC | ≤ 0.2
56 | CPCS | ≤ 0.2
57 | MVCS | ≤ 0.2
58 | YSWR | ≤ 0.2
59 | CSRC | ≤ 0.2
60 | DTND | ≤ 0.2
61 | GLPS | ≤ 0.2
62 | RWHV | ≤ 0.2
63 | RSTR | 0.447
64 | PSVI | ≤ 0.2
65 | TEDR | ≤ 0.2
66 | RITH | ≤ 0.2
67 | VSYM | ≤ 0.2
68 | IYNY | ≤ 0.2
69 | LRQN | ≤ 0.2
70 | ILDT | ≤ 0.2
71 | ECSC | ≤ 0.2
72 | HFTD | ≤ 0.2

Row | Variant | one-hybrid fitness for binding NBS DNA
73 | CQAS | ≤ 0.2
74 | HGPW | ≤ 0.2
75 | HVRL | ≤ 0.2
76 | YWGS | ≤ 0.2
77 | PTHL | ≤ 0.2
78 | VRFS | ≤ 0.2
79 | RQFY | ≤ 0.2
80 | RACA | ≤ 0.2
81 | TPSS | ≤ 0.2
82 | NHRD | ≤ 0.2
83 | FGPV | ≤ 0.2
84 | WCRA | ≤ 0.2
85 | IRQM | ≤ 0.2
86 | LLPG | ≤ 0.2
87 | AQDC | ≤ 0.2
88 | ACKD | ≤ 0.2
89 | ILTF | ≤ 0.2
90 | GECS | ≤ 0.2
91 | NGRA | ≤ 0.2
92 | ACYT | ≤ 0.2
93 | RACG | ≤ 0.2
94 | IWNT | ≤ 0.2
95 | METS | ≤ 0.2
96 | QKDY | ≤ 0.2

Row | Variant | one-hybrid fitness for binding NBS DNA
97 | RGLT | ≤ 0.2
98 | SHYF | ≤ 0.2
99 | IEIV | ≤ 0.2
100 | YRIT | ≤ 0.2
101 | SALV | ≤ 0.2
102 | MIQP | ≤ 0.2
103 | CKAQ | ≤ 0.2
104 | QMVM | ≤ 0.2
105 | IRKI | ≤ 0.2
106 | AYKN | ≤ 0.2
107 | SNKY | ≤ 0.2
108 | YMAA | ≤ 0.2
109 | KLDY | ≤ 0.2
110 | SEAT | ≤ 0.2
111 | QPFS | ≤ 0.2
112 | AMET | ≤ 0.2
113 | DRTA | ≤ 0.2
114 | VDSP | ≤ 0.2
115 | SLFP | ≤ 0.2
116 | KTPG | ≤ 0.2
117 | GCCS | ≤ 0.2
118 | MQDL | ≤ 0.2
119 | YMHC | ≤ 0.2
120 | GAGR | ≤ 0.2

Row | Variant | one-hybrid fitness for binding NBS DNA
121 | DFTL | ≤ 0.2
122 | RIRE | ≤ 0.2
123 | VIQC | ≤ 0.2
124 | QTQS | 0.504
125 | SDES | ≤ 0.2
126 | TIME | ≤ 0.2
127 | FSWY | ≤ 0.2
128 | RPGF | ≤ 0.2
129 | YKGR | ≤ 0.2
130 | LTGV | ≤ 0.2
131 | RRIT | 0.788
132 | CQTR | ≤ 0.2
133 | TTNM | ≤ 0.2
134 | ENVT | ≤ 0.2
135 | IHII | ≤ 0.2
136 | RRPD | ≤ 0.2
137 | TLSP | ≤ 0.2
138 | FMHG | ≤ 0.2
139 | LSLT | ≤ 0.2
140 | FRDF | ≤ 0.2
141 | NSTW | ≤ 0.2
142 | AGKM | ≤ 0.2
143 | LARR | ≤ 0.2
144 | FITM | ≤ 0.2

Row | Variant | one-hybrid fitness for binding NBS DNA
145 | TDLA | ≤ 0.2
146 | ETYR | ≤ 0.2
147 | GGRF | ≤ 0.2
148 | VEFR | ≤ 0.2
149 | QYTM | ≤ 0.2
150 | GGTY | ≤ 0.2
151 | IQEL | ≤ 0.2
152 | RHYQ | ≤ 0.2
153 | FYAS | ≤ 0.2
154 | MLKY | ≤ 0.2
155 | WQNC | ≤ 0.2
156 | LRHR | 0.252
157 | LVLE | ≤ 0.2
158 | IAGI | ≤ 0.2
159 | WTRR | 0.241
160 | QHLY | ≤ 0.2
161 | AANS | ≤ 0.2
162 | ESRF | ≤ 0.2
163 | SNAL | ≤ 0.2
164 | VMAC | ≤ 0.2
165 | GQDG | ≤ 0.2
166 | EVRS | ≤ 0.2
167 | SWEG | ≤ 0.2
168 | TVRA | ≤ 0.2

Row | Variant | one-hybrid fitness for binding NBS DNA
169 | KREM | ≤ 0.2
170 | THFR | ≤ 0.2
171 | SDPH | ≤ 0.2
172 | WVLY | ≤ 0.2
173 | LMVN | ≤ 0.2
174 | KYGP | ≤ 0.2
175 | AAWR | ≤ 0.2
176 | GEAL | ≤ 0.2
177 | QNSM | ≤ 0.2
178 | SEHE | ≤ 0.2
179 | TDRA | ≤ 0.2
180 | ADYY | ≤ 0.2
181 | LAQC | ≤ 0.2
182 | RQVM | ≤ 0.2
183 | CFHG | ≤ 0.2
184 | RYLY | ≤ 0.2
185 | ESVI | ≤ 0.2
186 | GHPP | ≤ 0.2
187 | SPYC | ≤ 0.2
188 | GDCC | ≤ 0.2
189 | ENKA | ≤ 0.2
190 | TLDG | ≤ 0.2
191 | CNPR | ≤ 0.2
192 | QAVR | 0.358

Row | Variant | one-hybrid fitness for binding NBS DNA
193 | VRSG | ≤ 0.2
194 | SSQA | ≤ 0.2
195 | ARYT | ≤ 0.2
196 | DTYN | ≤ 0.2
197 | CYPQ | ≤ 0.2
198 | TYIF | ≤ 0.2
199 | NNPA | ≤ 0.2
200 | SLHL | ≤ 0.2
201 | PWSG | ≤ 0.2
202 | DKDW | ≤ 0.2
203 | HRCI | ≤ 0.2
204 | LKNL | ≤ 0.2
205 | TNQD | ≤ 0.2
206 | YMMG | ≤ 0.2
207 | DAQR | ≤ 0.2
208 | NLRL | ≤ 0.2
209 | NVYM | ≤ 0.2
210 | QTVC | ≤ 0.2
211 | WPPC | ≤ 0.2
212 | RHPS | ≤ 0.2
213 | EISC | ≤ 0.2
214 | RGVM | ≤ 0.2
215 | TWDP | ≤ 0.2
216 | RHFS | 0.208

Row | Variant | one-hybrid fitness for binding NBS DNA
217 | QPAD | ≤ 0.2
218 | QMAC | ≤ 0.2
219 | EYEV | ≤ 0.2
220 | RMNT | 0.546
221 | WTKW | ≤ 0.2
222 | WQNN | ≤ 0.2
223 | ASKM | ≤ 0.2
224 | HARS | ≤ 0.2
225 | AYKS | ≤ 0.2
226 | HGYR | ≤ 0.2
227 | TSLT | ≤ 0.2
228 | GRCT | ≤ 0.2
229 | HTKL | ≤ 0.2
230 | TTPH | ≤ 0.2
231 | WLVG | ≤ 0.2
232 | MWHK | ≤ 0.2
233 | AQSG | ≤ 0.2
234 | IAHE | ≤ 0.2
235 | DGKG | ≤ 0.2
236 | FLTS | ≤ 0.2
237 | GPIY | ≤ 0.2
238 | WGPE | ≤ 0.2
239 | ANFS | ≤ 0.2
240 | TFAR | ≤ 0.2

Row | Variant | one-hybrid fitness for binding NBS DNA
241 | QAMS | 0.266
242 | ATMY | ≤ 0.2
243 | ATPR | ≤ 0.2
244 | NQEI | ≤ 0.2
245 | EGPE | ≤ 0.2
246 | HFTY | ≤ 0.2
247 | AIMD | ≤ 0.2
248 | KCKV | ≤ 0.2
249 | RWDM | ≤ 0.2
250 | QLTP | ≤ 0.2
251 | HSMS | ≤ 0.2
252 | PSLL | ≤ 0.2
253 | VSHS | ≤ 0.2
254 | RQCA | ≤ 0.2
255 | SPME | ≤ 0.2
256 | NIRF | ≤ 0.2
257 | KTSV | ≤ 0.2
258 | LAGP | ≤ 0.2
259 | LVSA | ≤ 0.2
260 | HRQR | ≤ 0.2
261 | YTFR | ≤ 0.2
262 | DMRV | ≤ 0.2
263 | EGMW | ≤ 0.2
264 | ASKK | ≤ 0.2

Row | Variant | one-hybrid fitness for binding NBS DNA
265 | WTES | ≤ 0.2
266 | PTVT | ≤ 0.2
267 | KRRH | 0.422
268 | KNKT | ≤ 0.2
269 | RCQE | ≤ 0.2
270 | GFDT | ≤ 0.2
271 | GFLM | ≤ 0.2
272 | QNCP | ≤ 0.2
273 | QICF | ≤ 0.2
274 | EASA | ≤ 0.2
275 | QIEC | ≤ 0.2
276 | RKSH | 0.211
277 | HCNH | ≤ 0.2
278 | TTND | ≤ 0.2
279 | SYIS | ≤ 0.2
280 | SKPC | ≤ 0.2
281 | AVAT | ≤ 0.2
282 | QVSR | 0.38
283 | LLAG | ≤ 0.2
284 | FHRG | ≤ 0.2
285 | VINC | ≤ 0.2
286 | TGAR | ≤ 0.2
287 | LRIS | ≤ 0.2
288 | NSSE | ≤ 0.2

Row | Variant | one-hybrid fitness for binding NBS DNA
289 | SIKV | ≤ 0.2
290 | YGRY | ≤ 0.2
291 | CCPR | ≤ 0.2
292 | HAYG | ≤ 0.2
293 | KDPE | ≤ 0.2
294 | EQLC | ≤ 0.2
295 | FKMS | ≤ 0.2
296 | PVHG | ≤ 0.2
297 | VSPV | ≤ 0.2
298 | RLKL | ≤ 0.2
299 | VPTC | ≤ 0.2
300 | QKCG | ≤ 0.2
301 | LRQA | ≤ 0.2
302 | QRET | 0.603
303 | DDYY | ≤ 0.2
304 | IILC | ≤ 0.2
305 | NWVT | ≤ 0.2
306 | WFHT | ≤ 0.2
